Measured values from PubChem BioAssay AID720708 (National Center for Advancing Translational Sciences (NCATS), 2013).
Hit rate of the full screen: of about 360,000 compounds, about 660 (0.18%) were called active. Inconclusive results, whose numbers are uncertain, are shown with a selection of clear calls. Calls follow the shape of the dose curve; as a rule, active = well fitted inhibition curve with a large enough effect; inconclusive = small, poorly fitted or top-dose-only effect; inactive = no such curve, though single readings can be large or run the other way. Potencies of inconclusive entries are left out as doubtful fits.

What follows are compounds tested against Rap guanine nucleotide exchange factor 4 (Homo sapiens) (UniProt Q8WZA2) (assay: qHTS for Antagonist of cAMP-regulated guanine nucleotide exchange factor 2 (EPAC2): primary screen). Conditions: EPAC2 GEF exchange of Rap1B-BODIPY-GDP, fluorescence; activity, negative = inhibition: at 114 µM (top of the series) unless noted.
% is scaled to controls: 0 for no effect and ±100 for the full control effect; potency is read from the fitted curve at half-maximal effect; tags tell the direction and shape of the fitted curve.
Also: nearly all actives have a fitted effect of over 45% in size.

UniProt Q8WZA2, sequence (Q8WZA2 whole entry, looked up): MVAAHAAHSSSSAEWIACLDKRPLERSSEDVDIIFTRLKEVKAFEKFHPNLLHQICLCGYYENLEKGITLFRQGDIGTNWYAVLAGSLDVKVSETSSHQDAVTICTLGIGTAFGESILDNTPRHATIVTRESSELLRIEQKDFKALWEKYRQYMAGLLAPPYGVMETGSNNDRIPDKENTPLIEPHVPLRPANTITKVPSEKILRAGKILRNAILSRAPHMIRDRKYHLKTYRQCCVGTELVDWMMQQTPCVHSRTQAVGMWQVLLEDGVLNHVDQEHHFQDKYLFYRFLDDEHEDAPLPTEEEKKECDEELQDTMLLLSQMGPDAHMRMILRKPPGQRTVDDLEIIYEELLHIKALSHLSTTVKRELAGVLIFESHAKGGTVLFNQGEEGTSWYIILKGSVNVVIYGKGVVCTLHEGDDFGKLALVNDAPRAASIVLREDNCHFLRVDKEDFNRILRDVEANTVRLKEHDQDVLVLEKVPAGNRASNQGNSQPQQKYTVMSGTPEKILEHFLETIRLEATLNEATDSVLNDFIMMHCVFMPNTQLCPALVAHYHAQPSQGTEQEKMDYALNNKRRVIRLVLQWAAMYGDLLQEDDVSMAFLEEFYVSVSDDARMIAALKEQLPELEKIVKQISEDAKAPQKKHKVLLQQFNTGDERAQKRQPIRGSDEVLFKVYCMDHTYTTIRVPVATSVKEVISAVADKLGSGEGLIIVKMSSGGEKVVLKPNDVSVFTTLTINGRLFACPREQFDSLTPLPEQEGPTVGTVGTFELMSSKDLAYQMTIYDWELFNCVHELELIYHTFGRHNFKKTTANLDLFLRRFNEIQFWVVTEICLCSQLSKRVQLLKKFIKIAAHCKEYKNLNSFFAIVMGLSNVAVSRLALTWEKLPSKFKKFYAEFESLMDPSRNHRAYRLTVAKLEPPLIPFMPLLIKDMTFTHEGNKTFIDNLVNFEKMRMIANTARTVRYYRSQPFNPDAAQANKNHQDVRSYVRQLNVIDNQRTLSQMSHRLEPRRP

| Structure (SMILES) | Potency | activity, negative = inhibition |
| --- | --- | --- |
| Nc1nc(-c2ccccc2)nn1S(=O)(=O)c1ccccc1 | inconclusive [inhibitor, single point] | – |
| CCOc1cc(/C=C2\SC(=O)N(CC(=O)Nc3ccccc3F)C2=O)cc([N+](=O)[O-])c1O | inconclusive [inhibitor, partial curve] | – |
| COc1cc(CNCc2ccccn2)ccc1OCc1ccc(Cl)c(Cl)c1 | – | inactive: -6.96% |
| COc1ccc(-c2cc(-c3nc4ccccn4c3NCc3ccccc3)ccc2OC)cc1 | – | inactive: 1.58% |
| CCOC(=O)C1=C(C(=O)OCC)c2ccc(OC)c(OC)c2C1 | inconclusive [inhibitor, partial curve] | – |
| COc1cc([N+](=O)[O-])ccc1NC(=O)NCC1CCN(Cc2ccc(Cl)cc2)CC1 | – | inactive: -1.21% |
| CCN(CC)c1ccc(NC(=O)COc2ccccc2C)cc1S(=O)(=O)Nc1ccccc1OC | – | inactive: -10.2% |
| Cc1ccc(-n2nc3cc(C)c(N)cc3n2)cc1 | – | inactive: 1.59% |
| Cc1ccc(CS(=O)Cc2ccc(C(=O)N3CCN(c4cccc(C)c4C)CC3)o2)cc1 (stereo not drawn) | inconclusive [inhibitor, partial curve] | – |
| CCOc1ccccc1NC(=O)c1cccc2ccccc12 | inconclusive [inhibitor, single point] | – |
| O=C(CN1CCOCC1)Nc1ccccc1Sc1ccc(Cl)cc1 | inconclusive [inhibitor, partial curve] | – |
| Cc1ccc(C)c(S(=O)(=O)NCCCc2ccccc2)c1 | inconclusive [inhibitor, partial curve] | – |
| O=c1[nH][nH]c2c1[C@H](c1ccc(F)cc1)O[C@H](CCC(F)(F)F)C2 | – | inactive: 1.7% |
| CC1(C(=O)NS(=O)(=O)Cc2cccc(Cl)c2)CCN1C(=O)C1(c2ccc(Cl)cc2)CCC1 (stereo not drawn) | inconclusive [inhibitor, full curve] | – |
| CCOC(=O)C1(CC)Oc2ccccc2C(c2ccc(OC)cc2)=C1C(=O)OC (stereo not drawn) | inconclusive [inhibitor, full curve, poor fit] | – |
| O=S(=O)(NCC1CCN(S(=O)(=O)c2ccccc2)CC1)c1ccccc1 | – | inactive: -13.8% |
| Cc1cc(O)cc(C)c1NS(=O)(=O)c1ccc2ccccc2c1 | active: 11.2 µM | – |
| CC(C)OC(=O)c1c(-c2ccc(C(C)C)cc2)csc1NC(=O)C1CCCO1 (stereo not drawn) | inconclusive [inhibitor, partial curve] | – |
| COc1ccccc1/C=C/C(=O)OCC(=O)Nc1ccccc1Sc1ccccc1 | inconclusive [inhibitor, partial curve] | – |
| Cc1ccc(C2(C(=O)N3CCC(n4nc(-c5ccccc5)oc4=O)CC3)CC2)cc1 | inconclusive [inhibitor, partial curve] | – |
| CCCCCNC(=O)C(c1ccc(C(F)(F)F)cc1)n1c(=O)c(-c2ccco2)nc2ccccc21 (stereo not drawn) | – | inactive: 1.35% |
| CNC(=O)C(=O)NCC1OCCN1S(=O)(=O)c1ccc(OC)c(OC)c1 (stereo not drawn) | – | inactive: 0.837% |
| CCC(C)C(=O)Nc1cc(Cl)ccc1C(=O)O (stereo not drawn) | – | inactive: 0.52% |
| COc1ccc2cc(-c3ccccc3F)ncc2c1 | inconclusive [inhibitor, partial curve] | – |
| COc1ccccc1CN1C(=O)C(C)ON=C1c1ccccc1F (stereo not drawn) | – | inactive: -20.5% |
| Cc1cc(/C=C2\SC(=S)NC2=O)c(C)n1-c1ccc(O)cc1 | inconclusive [inhibitor, partial curve] | – |

| Structure (SMILES) | Potency | activity, negative = inhibition |
| --- | --- | --- |
| O=C(CN1CCCCC1)N/N=C/c1ccccc1OCc1ccccc1 | – | inactive: -0.137% |
| COc1ccccc1NC(=O)CSc1nc2ccccc2c(=O)n1CC1CCCO1 (stereo not drawn) | inconclusive [inhibitor, partial curve] | – |
| O=C1c2ccccc2C(=O)N1c1nc(-c2cccs2)cs1 | active: 56.2 µM | – |
| COc1ccc(C2c3ccsc3CCN2C(C)=O)cc1 (stereo not drawn) | inconclusive [inhibitor, partial curve] | – |
| C[C@@H]1C(=O)O[C@H]2CC34[C@H]5C[C@@H](C(C)(C)C)[C@]36[C@@H](OC(=O)[C@@H]6O)O[C@@]4(C(=O)O5)[C@]21O (stereo partly drawn) | – | inactive: -13.7% |
| C(=C\c1ccccc1)/CN1CCN(C(c2cccs2)c2nnnn2Cc2ccccc2)CC1 (stereo not drawn) | inconclusive [inhibitor, single point] | – |
| O=C(O)CSc1cc(NS(=O)(=O)c2cccc([N+](=O)[O-])c2)c2ccccc2c1O | inconclusive [inhibitor, single point] | – |
| OC[C@@H]1CN(Cc2cccc3ccccc23)C[C@H](n2cnc3c(NCc4ccco4)ncnc32)O1 | inconclusive [inhibitor, partial curve] | – |
| O=c1[nH]c2c(s1)C=Nc1ccccc1N2 | – | inactive: 51.2% |
| C=CCOc1cccc(C2C(C(=O)c3ccc(C)o3)=C(O)C(=O)N2c2nccs2)c1 (stereo not drawn) | inconclusive [inhibitor, partial curve] | – |
| O=[N+]([O-])c1cc(C(F)(F)F)ccc1NCCc1c[nH]c2ccc(O)cc12 | inconclusive [inhibitor, full curve, poor fit] | – |
| Cn1cc(Cl)c(C(=O)NNC(=S)Nc2cccc(Cl)c2)n1 | inconclusive [inhibitor, single point] | – |
| COc1ccc(N2CCN(c3ccnc4cc(Cl)ccc34)CC2)cc1 | – | inactive: -7.42% |
| COc1ccc2[nH]c(=O)c(-c3noc(-c4ccccc4)n3)cc2c1 | – | inactive: 7.64% |
| O=C(NC(=S)NNC(=O)[C@H]1C[C@@H]1c1ccccc1)c1ccc(F)cc1 | inconclusive [inhibitor, full curve] | – |
| CN1CCCN(Cc2ccccc2C(F)(F)F)CC1 | – | inactive: -8.69% |
| CCCCC[C@H]1CN(CCc2ccccc2)C(=O)[C@@H]1CC(=O)NCc1ccc(OC)cc1 | – | inconclusive: -16.3% [inhibitor] |
| NNC(=O)C1CC(O)CN1S(=O)(=O)c1ccc(Cl)cc1 (stereo not drawn) | inconclusive [inhibitor, full curve] | – |
| O=C(c1ccccc1)c1ccc(-c2ccc(O)cc2)cc1 | inconclusive [inhibitor, single point] | – |
| Cc1ccccc1NS(=O)(=O)c1ccc(Cl)cc1 | inconclusive [inhibitor, partial curve] | – |
| Cc1ccc(C)c(OCC(=O)Nc2ccccc2C(=O)NC2CC2)c1 | – | inactive: 15.7% |
| C[C@H]1O[C@@H](n2cc(F)c(=O)[nH]c2=O)[C@H](O)[C@@H]1O | – | inactive: -9.36% |
| c1ccc(C(=C2CCCO2)c2ccccc2)cc1 | inconclusive [inhibitor, partial curve] | – |
| Cc1ccc(Cc2c(-c3ccc(C#N)cc3)nc3ccc(Br)cn23)cc1 | – | inactive: 8.59% |
| COc1ccc(S(=O)(=O)N2CCN(C(=O)c3cc(C)nc4ccccc34)CC2)cc1OC | – | inactive: -6.39% |
| CCOc1ccc(S(=O)(=O)Nc2ccc(F)cc2)c(C)c1C | inconclusive [inhibitor, partial curve] | – |

| Structure (SMILES) | Potency | activity, negative = inhibition |
| --- | --- | --- |
| Cc1csc(=O)n1CCC(=O)OCc1nnc(-c2ccccc2Cl)o1 | – | inactive: 9.91% |
| COc1c(Br)cc([N+](=O)[O-])c(OC)c1C(=O)NC(=O)Nc1nc(C)cc(C)n1 | inconclusive [inhibitor, single point] | – |
| Cc1ccc(S(=O)(=O)N(Cc2ccccc2)c2ccccc2C(=O)N2CCCCC2)cc1 | – | inactive: -2.45% |
| COc1cccc(C(=O)Nc2ccc3c(c2)OC[C@H](C)N(CCc2ccccc2)C[C@@H](C)[C@@H](OC)CN(C)C3=O)c1 | inconclusive [inhibitor, single point] | – |
| COc1ccc(C2C(C#N)=C(N)Oc3cc(O)ccc32)cc1Cl (stereo not drawn) | inconclusive [inhibitor, full curve] | – |
| CCOc1ccccc1C(=O)NC(C(=O)OCn1nnc2ccccc2c1=O)C(C)C (stereo not drawn) | – | inactive: -1.65% |
| CC1CCC(C(C)C)C(OP(=O)(c2ccccc2)C(O)c2ccncc2)C1 (stereo not drawn) | inconclusive [inhibitor, single point] | – |
| CC1(C(=O)Nc2ccc3c(c2)OCCO3)CCN1Cc1csc2ccccc12 (stereo not drawn) | inconclusive [inhibitor, partial curve] | – |
| CC1C(=O)N2CCCc3cc(NC(=O)COc4ccc(Cl)cc4)cc1c32 (stereo not drawn) | – | inactive: -15.8% |
| O=C(CSc1ncccc1-c1nc2ccccc2[nH]1)NCc1ccco1 | – | inactive: 0.964% |
| Cc1nc2c(-c3ccc(F)cc3)c(C)nn2c(C)c1CCC(=O)NCCN1CCOCC1 | inconclusive [inhibitor, single point] | – |
| CC(C)c1ccc(NC2CCCN(C(=O)CC3CCCC3)C2)cc1 (stereo not drawn) | inconclusive [inhibitor, partial curve] | – |
| COC(=O)c1cc(Br)c(=O)n(CCC2=CCCCC2)c1 | inconclusive [inhibitor, partial curve] | – |
| COc1cccc(CNc2ccc(C)c(Cl)c2)c1 | inconclusive [inhibitor, full curve] | – |
| C=CSc1sc(Cl)c(N2CCOCC2)c1[N+](=O)[O-] | inconclusive [inhibitor, partial curve] | – |
| CCCc1nc2ccc(C(=O)OC)cn2c1Cc1ccccc1C(F)(F)F | inconclusive [inhibitor, partial curve] | – |
| CC(=O)c1ccc(NC(=O)c2cccc(S(=O)(=O)N3CCN(C)CC3)c2)cc1 | – | inactive: 7.53% |
| C[C@H](CO)N1C[C@H](C)[C@@H](CN(C)S(=O)(=O)c2ccccc2)Oc2c(cccc2N(C)C)C1=O | – | inactive: 6.8% |
| CC(C)(C)Cc1c(-c2ccc(Cl)cc2)nc2ccc(Cl)cn12 | inconclusive [inhibitor, full curve, poor fit] | – |
| O=S(=O)(c1ccccc1)n1ccc(-c2cnc(-c3ccccc3)s2)n1 | – | inactive: -5.36% |
| Cc1ccc(N=C2NC(=O)/C(=C/c3cccn3C)S2)cc1C | – | inactive: 2.62% |
| CCCCNS(=O)(=O)c1ccc2nc(-c3cccnc3)cc(C(=O)NCCOC)c2c1 | inconclusive [inhibitor, single point] | – |
| CCCn1c(C(O)c2ccc(C)cc2)nc2ccccc21 (stereo not drawn) | inconclusive [inhibitor, partial curve] | – |
| O=[N+]([O-])c1ccc(N2CCN(C(=S)NC3CCCCC3)CC2)cc1 | – | inactive: -7% |
| CCc1cccc2c(C(=O)C(NC(C)CC)c3ccccc3)c[nH]c12 (stereo not drawn) | inconclusive [inhibitor, partial curve, poor fit] | – |
| COc1ccc(C(=O)c2ccccc2Cl)cc1OC | inconclusive [inhibitor, partial curve] | – |
